# PMC4336329 (PLoS ONE, 2015)
# The whole screen tested about 310,000 compounds, of which about 2,200 (0.71%) showed an effect of 50% or more. Effects have a minus sign here. The list shows a part of the results.
# Target: human ether-à-go-go-related gene (hERG) potassium channel (human, UniProt Q12809)
# Experiment: primary screen, population patch clamp on CHO cells stably expressing hERG
# Sequence of human ether-à-go-go-related gene (hERG) potassium channel (Q12809 whole entry, looked up): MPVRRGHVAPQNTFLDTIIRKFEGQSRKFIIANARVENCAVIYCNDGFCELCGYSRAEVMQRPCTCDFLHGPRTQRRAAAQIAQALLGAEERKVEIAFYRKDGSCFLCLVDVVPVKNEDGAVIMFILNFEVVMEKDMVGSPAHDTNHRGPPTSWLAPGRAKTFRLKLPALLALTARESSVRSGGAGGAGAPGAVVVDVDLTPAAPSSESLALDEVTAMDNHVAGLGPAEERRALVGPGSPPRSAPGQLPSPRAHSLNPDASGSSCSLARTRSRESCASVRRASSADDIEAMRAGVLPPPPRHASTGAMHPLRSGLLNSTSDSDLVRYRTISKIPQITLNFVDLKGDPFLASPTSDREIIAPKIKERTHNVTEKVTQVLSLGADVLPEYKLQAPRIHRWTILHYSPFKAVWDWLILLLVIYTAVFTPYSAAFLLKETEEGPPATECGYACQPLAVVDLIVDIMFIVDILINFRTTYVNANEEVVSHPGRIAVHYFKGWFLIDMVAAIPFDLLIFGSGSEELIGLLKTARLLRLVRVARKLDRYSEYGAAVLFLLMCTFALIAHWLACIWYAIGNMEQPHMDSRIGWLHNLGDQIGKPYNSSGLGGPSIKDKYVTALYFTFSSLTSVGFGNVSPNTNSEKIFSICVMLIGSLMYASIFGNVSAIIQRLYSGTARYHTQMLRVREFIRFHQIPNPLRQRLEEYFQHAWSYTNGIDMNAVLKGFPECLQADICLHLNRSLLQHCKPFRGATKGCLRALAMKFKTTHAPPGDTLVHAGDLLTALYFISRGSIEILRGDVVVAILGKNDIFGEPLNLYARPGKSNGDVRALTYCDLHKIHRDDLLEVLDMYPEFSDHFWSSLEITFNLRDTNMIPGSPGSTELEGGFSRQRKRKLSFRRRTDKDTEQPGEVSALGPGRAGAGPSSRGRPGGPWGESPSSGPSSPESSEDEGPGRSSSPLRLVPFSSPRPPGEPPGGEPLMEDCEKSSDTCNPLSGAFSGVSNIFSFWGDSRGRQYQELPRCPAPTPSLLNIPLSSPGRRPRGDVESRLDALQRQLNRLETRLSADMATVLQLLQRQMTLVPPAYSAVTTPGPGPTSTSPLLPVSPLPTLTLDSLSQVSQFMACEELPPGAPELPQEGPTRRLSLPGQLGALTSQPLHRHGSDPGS
row,Structure (SMILES),"hERG current change (%, negative = inhibition) at 1uM [%]"
1,CCNC(=S)N1CCC(NC(=O)C2CCCCC2)CC1,9.82
2,COc1ccc(C(=O)C2CCCN(Cc3cccc(C)n3)C2)c(OC)c1 (stereo not drawn),-58.3
3,O=C(COc1ncnc2ccc(Br)cc12)NC1CCCC1,10.4
4,Cc1nn(CCC#N)c(NC(=O)c2ccccc2)c1P(=O)(Nc1ccc(Br)cc1)N1CCOCC1 (stereo not drawn),10.5
5,CC1CCN(S(=O)(=O)c2ccc(C(=O)Nc3nnc(C4=COCCO4)o3)cc2)CC1,12.5
6,Cc1c(OCC(=O)N(C)C)ccc2c(-c3ccccc3)cc(=O)oc12,16.9
7,O=C(c1ccoc1)N1CCC2(CCCN(Cc3ccc(F)c(F)c3)C2)C1 (stereo not drawn),-6.57
8,O=C(NCCc1nc2ccccc2[nH]1)Nc1ccccc1,3.7
9,CC(=O)NC12CC3CC(C1)CC(C(=O)Nc1c(C)n(C)n(-c4ccccc4)c1=O)(C3)C2,10.6
10,CCOC(=O)c1ccc(N2C(=O)CC(N(Cc3ccc4c(c3)OCO4)C(=O)Nc3ccccc3)C2=O)cc1 (stereo not drawn),1.35
11,Cc1ccc(-c2c(C(=O)NCc3ccccc3)oc(=O)c3ccccc23)cc1,7.89
12,CC(C)N=C(NS(=O)(=O)c1ccc(Br)cc1)c1ccc(Cl)cc1,8.13
13,c1ccc2c(c1)nc1n2CCS1,8.43
14,CC(CN1CCOCC1)OC(=O)c1ccc(C(C)(C)C)cc1.Cl (stereo not drawn),9.47
15,Cc1cccc(NC(=S)NC2CCCCCC2)c1C,15.7
16,COc1ccc(NC(=O)c2ccc3c(c2)N(C)CCS3)cc1,2.55
17,COc1ccc2c(=O)c3c(=O)n(CCc4ccccc4)c(C(C)C)nc3oc2c1,1.01
18,CC(C)(C)NS(=O)(=O)c1ccc(CCC(=O)Nc2ccc3c(c2)OCO3)cc1,5.13
19,CCOC(=O)c1sc(=S)n(C)c1NC(=O)c1ccccc1,14.9
20,CNc1ccccc1C(C)(C)c1cn(-c2ccc([N+](=O)[O-])cc2)nn1,18.1
21,O=C(NCC(F)(F)F)c1nn(Cc2ccccc2)c(=O)c2ccccc12,13
22,O=C(Nc1ccccc1N1CCCC1)c1cc2ccccc2o1,16.4

row,Structure (SMILES),"hERG current change (%, negative = inhibition) at 1uM [%]"
1,O=C(CN1C(=O)c2ccccc2S1(=O)=O)c1cccc(Br)c1,8.89
2,COc1ccc(NC(=O)c2nc3nccc(C)n3n2)cn1,7.89
3,Br.Cc1ccc(C)c(C(=O)Cn2c(NCCO)nc3ccccc32)c1,13.3
4,COc1cc(NC(=S)NC(=O)c2c(OC)cccc2OC)ccc1NC(=O)c1cccs1,2.41
5,CN(C)Cc1c(C(=O)N/N=C/CCc2ccccc2)nnn1-c1nonc1N,2.26
6,Cc1cccc(Nc2nc(C)cc(C)n2)c1.Cl,21.9
7,O=C(c1cn[nH]c1)c1cc(F)ccc1O,11.2
8,O=C1OC(Nc2ccc3ncccc3c2)c2ccccc21 (stereo not drawn),19.9
9,CCOc1cc(/C=C/C(=O)OCC(=O)NC2CCS(=O)(=O)C2)ccc1OCc1ccccc1 (stereo not drawn),4.3
10,CCOc1ccc(/C=N/NC(=O)c2cc(-c3cccn3C)n[nH]2)cc1,19.3
11,O=C1CC[C@H](O)CCN1CCSc1ccc(Br)cc1,9.22
12,CC(C)(C)NC(=O)CN(C(=O)CS(=O)CC(=O)Nc1ccc(F)cc1)c1cccc(F)c1 (stereo not drawn),8.75
13,CCC(C)(C)NC(=O)CN(C(=O)CCC(=O)Nc1cc(C)ccn1)c1ccc2c(c1)OCO2,7.31
14,Cn1c(SCC(=O)Nc2cccc(O)c2)nnc1-c1ccc(S(=O)(=O)N2CCOCC2)cc1,9.1
15,CCc1nnc(NS(=O)(=O)c2ccc(NC(=O)c3cc4ccccc4oc3=O)cc2)s1,7.18
16,O=[N+]([O-])c1ccc(Oc2ncccn2)cc1,8.42
17,O=C(Cn1cnc2c(nnn2-c2cccc(F)c2)c1=O)Nc1ccc2c(c1)OCCO2,12
18,COc1cc2sc3ccc(C#CC4(O)CCCCC4)cc3c(=O)c2cc1OC,16.6
19,O=C1NC(c2ccc(O)cc2)Nc2ccccc21 (stereo not drawn),3.49
20,COCCNC(=O)c1c(NC(=O)c2ccco2)n(Cc2ccccc2)c2nc3ccccc3nc12,2.66
21,Cc1ccc(SCc2cc(=O)[nH]c(N3CCN(Cc4ccccc4)CC3)n2)cc1,12.3
22,O=C(O)COc1ccc(Br)cc1CP(=O)(c1ccccc1)c1ccccc1,9.68

row,Structure (SMILES),"hERG current change (%, negative = inhibition) at 1uM [%]"
1,COc1cc(CNCc2cccs2)ccc1OCC(N)=O.Cl,6.75
2,O=C(CN(c1ccc(F)cc1)S(=O)(=O)c1ccccc1)NC1CC2CCC1C2 (stereo not drawn),8.53
3,Cc1ccc(NC(=S)NC2CC3CCCC(C2)N3Cc2ccco2)cc1 (stereo not drawn),-36.1
4,Cc1ccc(-c2nnn(CC(=O)N(CCO)C(C(=O)NC3CCCC3)c3ccc(F)cc3)n2)o1 (stereo not drawn),6.32
5,Cc1nnc(SCc2nc3ccccc3nc2C)s1,8.4
6,COc1nc(N(c2ccccc2)c2ccccc2)nc(-n2ccnc2)n1,-3.13
7,COc1ccc(-c2cc(C(=O)OC3CCOC3=O)c3ccccc3n2)cc1 (stereo not drawn),3.48
8,O=C(Nc1nccs1)C1CCN(S(=O)(=O)c2ccc3c(c2)OCCCO3)CC1,-3.99
9,Cc1c(Cl)cccc1NC(=O)CCS(=O)(=O)c1cccc2nonc12,6.07
10,O=C(CN1CCc2ccccc2C1)Nc1cc(S(=O)(=O)N2CCOCC2)ccc1N1CCCC1,4.22
11,COc1ccc(NC(=O)NNc2cc(N3CCOCC3)nc(N3CCOCC3)n2)cc1,5.41
12,COc1ccc(C(=O)NC(=S)N2CCOCC2)cc1[N+](=O)[O-],7.84
13,Cn1nc(C(=O)OCC(=O)NCCc2ccccc2)c2ccccc2c1=O,4.59
14,CS(=O)(=O)N(CC(=O)Nc1ccc2c(c1)OCCO2)Cc1ccccc1,13.1
15,O=C(CN1C(=O)c2ccccc2C1=O)Nc1cccnc1,9.29
16,CC(C)(C)c1ccc(O)c(N=Cc2c(O)ccc3ccccc23)c1,4.34
17,CC(=O)Oc1c(-c2ccco2)oc2ccccc2c1=O,5.11
18,Cc1cccc(NC(=S)N2CCN(c3cc(C)ccc3C)CC2)c1,15.8
19,CCn1cc(S(=O)(=O)Nc2cccnc2)cn1,13.7
20,CC(=O)N1CCc2cc(C(=O)CN3CCN(C(=O)c4ccco4)CC3)ccc21,12.6
21,CCOCC(=O)Nc1ccc2c(c1)OCCO2,13.1
22,COc1cc(NC(=O)c2cc([N+](=O)[O-])ccc2NC(=O)CNCc2ccccn2)cc(OC)c1,14.5

row,Structure (SMILES),"hERG current change (%, negative = inhibition) at 1uM [%]"
1,O=C(COC(=O)c1cnccn1)c1ccc2ccccc2c1,14.3
2,COc1ccccc1N(C)S(=O)(=O)c1ccc(Cl)c(C(=O)NC2=NCCS2)c1,21.6
3,Cn1cccc1C(=O)N1CCc2ccccc2C1,12.9
4,CCCCOc1ccc(C2/C(=C(\O)c3ccc4c(c3)OCCO4)C(=O)C(=O)N2CCCN2CCOCC2)cc1 (stereo not drawn),16.1
5,Cc1cnc(NC(=O)c2ccc(Cl)nc2)s1,14.9
6,CC(C)OCCCNC(=O)c1ccc2c(=O)n(Cc3ccc4c(c3)OCO4)c(=S)[nH]c2c1,6.77
7,Cc1ccc(C(C)C)c(OCc2ccc(C(=O)N/N=C/c3ccc(O)c(O)c3)cc2)c1,11.3
8,O=C(Cn1c(NCCO)nc2ccccc21)NCCc1ccc(F)cc1,8.91
9,CN(C)c1ccc(C(=O)Nc2cc(C(F)(F)F)ccc2-n2cncn2)cc1,4.88
10,CC(C)n1ncc2c(C(=O)N3CCN(Cc4ccc(Cl)s4)CC3)cc(C3CC3)nc21,5.19
11,COc1ccc2c(CC(=O)NCC3CCC(C(=O)O)CC3)cc(=O)oc2c1 (stereo not drawn),2.86
12,O=C(O)CCn1cc(C=C2C(=O)NC(=S)NC2=O)c(-c2cccc(Br)c2)n1,17.2
13,CSc1ccccc1OCc1cc(C(=O)N(C)Cc2ccc(C)o2)no1,7.87
14,CCc1cc(=O)oc2cc(OCC(=O)OC)c(Cl)cc12,-2.13
15,CC(C)C1Cc2c(sc3[nH]c(=S)n(Cc4ccccc4)c(=O)c23)CO1 (stereo not drawn),10.6
16,CCS(=O)(=O)N1CCC(C(=O)NCc2ccco2)CC1,10.1
17,CCOC(=O)C[C@H]1c2ccc(C(F)(F)F)cc2S(=O)(=O)N1Cc1ccccc1,7.82
18,CCO[C@@H]1OC(C(=O)NCc2ccccc2)=C[C@H](c2ccc(C(F)(F)F)cc2)[C@H]1CCCO,-0.0755
19,C[C@H]1CN=C(Nc2ccccc2)N1CCCC1CCCCC1,-33.9
20,Cc1cc(C(=O)Nc2ccccc2)c2ccccc2n1,17.5
21,O=C(NC(=S)NC(CO)Cc1ccccc1)c1ccc(F)cc1 (stereo not drawn),9.49
